Here are results for 70 compounds from PubChem BioAssay AID1240 (Sanford-Burnham Center for Chemical Genomics, 2008).

The structures appear in SMILES notation. “And” between values parts separate entries of the source, which are not always exact repeats. Equal entries are not always repeated. Hit rate of the full screen: of about 50,000 compounds, about 800 (1.6%) showed an effect of 50% or more. The list shows a part of the results.

This experiment concerns the target Bcl-2-like protein 10 (Homo sapiens) (UniProt Q9HD36). Kind of experiment: TR3 peptide-Bcl-B binding displacers, biochemical primary FP assay, phenotype converters (AID 1240).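 Further: 0% = Bcl-B with tracer peptide and DMSO and 100% = tracer peptide lacking Bcl-B.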 The following applies: GST-Bcl-B / FITC-TR3 peptide fluorescence polarization; stronger effect = higher value; compound at 3.75 mg/L.
Chain of UniProt Q9HD36 (Q9HD36 whole entry, looked up): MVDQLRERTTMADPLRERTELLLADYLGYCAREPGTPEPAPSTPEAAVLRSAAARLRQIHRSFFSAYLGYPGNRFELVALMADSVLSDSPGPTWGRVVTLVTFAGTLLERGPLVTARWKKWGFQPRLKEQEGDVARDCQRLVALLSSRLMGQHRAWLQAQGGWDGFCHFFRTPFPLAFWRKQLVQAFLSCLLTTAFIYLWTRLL
For the compound `Cc1cc2nc(-c3cccc(NC(=O)COc4ccccc4[N+](=O)[O-])c3)oc2cc1C`, the displacement worked out at 6.8%.

On to `COc1ccc(C2CC(=O)C3=C(C2)Nc2ccccc2NC3c2ccc(Cl)c([N+](=O)[O-])c2)cc1` (stereo not given), for which the displacement is -11.9%.

As to `COc1ccc2c(C)cc(=S)[nH]c2c1`, the displacement is 5.8% and -0.9%.

As for `O=C1c2cccc3c(N4CCCCC4)ccc(c23)C(=O)N1c1ccc(Cl)cc1`, the displacement was 5.7%.

As for `Cc1c(OCC(=O)N(C)C)ccc2c3c(c(=O)oc12)CCCC3`, the displacement is -5.8%.

With `NC(=O)C1CCN(C(=O)c2ccccc2Br)CC1`, the displacement was -2.2%.

With `O=C1OC2C=CC=CC2C=C1C(=O)N1CCSC1c1ccc2c3c(cccc13)CC2` (stereo not given), the displacement stood at 11.9%.

Consider `O=CN1CCN(C(=O)COc2ccc3ccccc3c2)CC1`, for which the displacement stood at 10.1%.

Consider `CCOC(=O)C1=C(O)/C(=C/N(C)C)SC1=Nc1ccc([N+](=O)[O-])cc1`, for which the displacement was -14.8%.

Turning to `NS(=O)(=O)c1ccc(NC(=O)CCCN2C(=O)/C(=C/c3ccc(Cl)cc3)SC2=S)cc1`, the displacement was -0.5%.

Take `COc1cccc(-c2cc(C(=O)Nc3ccc(S(=O)(=O)Nc4nccc(C)n4)cc3)c3ccccc3n2)c1`: the displacement is 1.3%.

In the case of `O=C(O)CCCNS(=O)(=O)c1ccc(NCc2ccccc2)c(C(=O)O)c1`, the displacement was 0.1%.

Consider `CCC1S/C(=N\N=C\c2cccc3ccccc23)NC1=O` (stereo not given), for which the displacement was found to be 127%.

Consider `C=CCN1C(=O)/C(=C/c2cc(C)n(-c3ccc(C(=O)OC)cc3)c2C)SC1=S`, for which the displacement was 109%.

Regarding `CCN(CC)S(=O)(=O)c1ccc(C(=O)Nc2sc3c(c2C(N)=O)CCCC3)cc1`, the displacement stood at 5.2%.

For `N#CCn1cc(/C=C(/C#N)C(=O)Nc2cccc(Br)c2)c2ccccc21`, the displacement is 45.9%.

Turning to `O=C(Cc1ccc(F)cc1)NCCc1ccccc1`, the displacement worked out at 4.6%.

Consider `CCCN1C(=O)c2ccccc2NC1c1c(Cl)cccc1Cl` (stereo not given), for which the displacement is -5.4%.

For `Cc1cc(NC(=O)C2CCCCC2)cc(C)c1O`, the displacement was -2.7%.

Consider `COc1ccc(-c2csc(/C(C#N)=C\c3sccc3C)n2)cc1`, for which the displacement came out at 1.8%.

For `O=C(NC(=S)NCc1ccco1)c1ccc([N+](=O)[O-])cc1`, the displacement is -1%.

Consider `CC/C(=N\N=C(/CC)c1ccccc1N)c1ccccc1N`, for which the displacement is 13.2%.

Turning to `Cc1ccc(-c2csc(NC(=O)c3sc4ccccc4c3Cl)n2)c(C)c1`, the displacement is 2.6%.

`CC1=C(C(=O)Nc2ccccc2)C(c2ccco2)N2C(=O)CSC2=N1` (stereo not given): the displacement is -7.2%.

On to `COc1ccc(OC)c(C2CC(=O)C(C)C(c3cc(OC)ccc3OC)N2)c1` (stereo not given), for which the displacement was -5.2%.

For the compound `Cc1ccc2[nH]c(C(=O)N/N=C/c3ccncc3)c(-c3ccccc3)c2c1`, the displacement was -11.1%.

Regarding `Cc1ccccc1CNC(=O)c1cccc(Cl)c1`, the displacement is 1.1%.

For `COC(=O)C1=C(C)N(CCc2ccccc2)C(=O)C1`, the displacement is -11.9%.

In the case of `O=C(COc1ccc(Br)cc1)NCc1ccncc1`, the displacement was -15.4%.

For `CCN1C(=O)C(=Cc2ccc(O)cc2)C(=O)NC1=S`, the displacement is 8.3%.

With `CCOC(=O)C1=C(O)/C(=C/c2ccc(Br)cc2)SC1=Nc1ccccc1`, the displacement was -15.8%.

Consider `CCOC(=O)C1CCN(S(=O)(=O)c2ccc(-c3ccc([N+](=O)[O-])cc3)cc2)CC1`, for which the displacement was 12.4%.

On to `CCOC(=O)c1c(NC(=O)/C=C\C(=O)O)sc2c1CCC(CC)C2` (stereo not given), for which the displacement is -1.1%.

Consider `C=CCNc1nc(-c2ccc(Cl)cc2)nc2ccccc12`, for which the displacement was -3.8%.

On to `COc1ccc(C=Nc2ccc3c(c2)nc(C)n3C)cc1`, for which the displacement came out at 7.5%.

As to `CCOC(=O)CNS(=O)(=O)c1cc(Cl)ccc1Cl`, the displacement is -15.2%.

Consider `Cc1oc2ccc(OCc3cccc(Cl)c3)cc2c1C(=O)O`, for which the displacement is 11.3%.

As to `O=C(/C=C\Nc1ccccc1[N+](=O)[O-])c1ccc2c(c1)OCO2`, the displacement was 9.4%.

Regarding `CCOc1ccc(S(=O)(=O)N(CC(=O)Nc2ccccc2CC)c2ccc(C)cc2)cc1`, the displacement is 4.9%.

For `CCc1ccccc1NC(=O)C(=O)NCC(C)O` (stereo not given), the displacement was -1.3%.

Take `CCCc1c(C)nc2ccc(C)cc2c1SCC(=O)O`: the displacement was -3.6%.

On to `Cc1ccc(C2(c3ccc(C)cc3)CC2C(=O)NC(C)(C)C)cc1` (stereo not given), for which the displacement is -1.3%.

In the case of `O=C1S/C(=C/c2ccccc2F)C(=O)N1CNc1ccccc1Cl`, the displacement was found to be 7.1%.

In the case of `COc1ccc(C(C)NC(=O)CN(c2ccccc2C)S(=O)(=O)c2ccc(C)cc2)cc1` (stereo not given), the displacement came to 4.5%.

Turning to `COc1cc(/C=C2\SC(=S)N(CC(C)C)C2=O)ccc1O`, the displacement was found to be 91.5%.

In the case of `O=C(CCc1ccccc1)NCc1ccc2c(c1)OCO2`, the displacement was found to be 14.7%.

As for `COc1ccc(/C=C2\SC(=Nc3cccc(Cl)c3C)NC2=O)c(OC)c1`, the displacement turned out to be 6.8%.

For `C=CCSc1nc(C)c2cc(OCC)ccc2n1`, the displacement turned out to be 7.4%.

Regarding `CC1=C(C(=O)OCCOc2ccccc2)C(c2cccc(Cl)c2)C2=C(CCCC2=O)N1` (stereo not given), the displacement is -12.9%.

As for `Cc1ccc(S(=O)(=O)c2cc(O)ccc2O)cc1`, the displacement worked out at 8.2%.

Take `COc1cccc(CN2CCN(C(=O)c3cccc(F)c3)CC2)c1OC`: the displacement is -8%.

Consider `CCOC(=O)c1c(NC(=O)C2C3C=CC(C3)C2C(=O)O)sc(C)c1C` (stereo not given), for which the displacement was found to be 2.9%.

On to `CC1SC2(C(=O)Nc3ccccc32)N(c2ccccc2)C1=O` (stereo not given), for which the displacement came out at 5.7%.

As for `C=CCNCc1cccn1-c1sc2c(c1C#N)CCCC2`, the displacement was -2.9%.

Consider `CCOc1ccc(C(=O)Nc2cc(-c3nc4ccccc4o3)ccc2OC)cc1Br`, for which the displacement is -12.6%.

For `Cc1nc(N(CCC#N)CCC#N)sc1C(C)(C)C`, the displacement was -5.3%.

`COc1ccc(OC)c(C2c3c(-c4ccccc4)n[nH]c3C(=O)N2c2ccccc2)c1` (stereo not given): the displacement was 0.7%.

For the compound `O=Cc1cccc(OCc2ccccc2F)c1`, the displacement was -0.4%.

With `CC1=NN(c2cccc(C(=O)O)c2)C(=O)/C1=C\c1cccs1`, the displacement came to 6.2%.

With `COc1ccc(Cl)cc1NC(=O)CN(c1ccc(C)cc1)S(=O)(=O)c1ccc(F)cc1`, the displacement was determined as 24.1%.

On to `Cc1ccc(Cl)cc1NC(=O)COc1ccc2ccccc2c1`, for which the displacement was -4.8%.

For the compound `Cc1ccc(C)c(N=C(NO)C(=Nc2cc(C)ccc2C)NO)c1`, the displacement was -17.3%.

As for `CCOC(=O)c1c(NC(=S)NC(=O)/C=C/c2cccs2)sc(C)c1C`, the displacement is 2.4%.

Turning to `COc1cccc(NC(=O)CSc2nc3ccccc3o2)c1`, the displacement was 10.3%.

As for `O=C(Nc1nc(C23CC4CC(CC(C4)C2)C3)cs1)c1ccc(F)cc1`, the displacement was -6.9%.

For `COc1ccc(N(CC(=O)Nc2ccc(I)cc2)S(C)(=O)=O)c(OC)c1`, the displacement is -7%.

Turning to `CC1=C(C(=O)Nc2ccccc2)C(c2ccc3c(c2)OCO3)NC(=S)N1` (stereo not given), the displacement is -5.7%.

For the compound `CCOC(=O)N1CCN(C2CC(=O)N(c3cccc(Br)c3)C2=O)CC1` (stereo not given), the displacement was found to be 2.1%.

`O=C(c1nn2c(c1Br)NC(c1cccs1)CC2C(F)(F)F)N1CCCc2ccccc21` (stereo not given): the displacement amounted to 2.4%.

With `O=C(COc1ccc(Br)cc1)Nc1ccc2oc(-c3ccccc3F)nc2c1`, the displacement stood at 5.1%.
